# This is one part of the list.
# Tests used:
# Experiment in all cases: glycan array binding signal (z-score within array); higher = stronger binding
# Conditions in all cases: glycan notation: IUPAC condensed, linker removed
# [1] = biological target: Neu5Ac(a2-3)Gal(b1-3)[Fuc(a1-4)]GlcNAc
# In short: (§1)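 Columns mapping to the same glycan were averaged after glycan names were converted to IUPAC-condensed notation. The data come from 3228 arrays in the Consortium for Functional Glycomics database, limited to those with an available protein sequence. Binding is reported as a within-array Z-score averaged across arrays of one protein sequence and across linkers.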
# [2] = biological target: Neu5Ac(a2-3)Gal(b1-3)[Fuc(a1-4)]GlcNAc(b1-3)Gal(b1-3)[Fuc(a1-4)]GlcNAc
# In short: as §1
# [3] = biological target: Neu5Ac(a2-3)Gal(b1-3)[Fuc(a1-4)]GlcNAc(b1-3)Gal(b1-4)[Fuc(a1-3)]GlcNAc
# In short: as §1
# [4] = biological target: Neu5Ac(a2-3)Gal(b1-3)[GlcNAc(b1-6)]GalNAc
# In short: as §1
# [5] = biological target: Neu5Ac(a2-3)Gal(b1-3)[Neu5Ac(a2-6)]GalNAc
# In short: as §1
# [6] = biological target: Neu5Ac(a2-3)Gal(b1-3)[Neu5Ac(a2-6)]GlcNAc(b1-3)[Fuc(a1-3)[Gal(b1-4)]GlcNAc(b1-6)]Gal(b1-4)Glc
# In short: as §1
# [7] = biological target: Neu5Ac(a2-3)Gal(b1-3)]Neu5Ac(a2-3)Gal(b1-4)]GlcNAc
# In short: as §1
# [8] = biological target: Neu5Ac(a2-3)Gal(b1-4)Glc
# In short: as §1
# [9] = biological target: Neu5Ac(a2-3)Gal(b1-4)GlcNAc
# In short: as §1
# [10] = biological target: Neu5Ac(a2-3)Gal(b1-4)GlcNAc(b1-2)Man
# In short: as §1
# [11] = biological target: Neu5Ac(a2-3)Gal(b1-4)GlcNAc(b1-2)Man(a1-3)[GlcNAc(b1-4)][Neu5Ac(a2-3)Gal(b1-4)GlcNAc(b1-2)Man(a1-6)]Man(b1-4)GlcNAc(b1-4)GlcNAc
# In short: as §1
# [12] = biological target: Neu5Ac(a2-3)Gal(b1-4)GlcNAc(b1-2)Man(a1-3)[Neu5Ac(a2-3)Gal(b1-4)GlcNAc(b1-2)Man(a1-6)]Man(b1-4)GlcNAc(b1-4)GlcNAc
# In short: as §1
# [13] = biological target: Neu5Ac(a2-3)Gal(b1-4)GlcNAc(b1-2)Man(a1-3)[Neu5Ac(a2-3)Gal(b1-4)GlcNAc(b1-2)Man(a1-6)]Man(b1-4)GlcNAc(b1-4)[Fuc(a1-6)]GlcNAc
# In short: as §1
# [14] = biological target: Neu5Ac(a2-3)Gal(b1-4)GlcNAc(b1-2)Man(a1-3)[Neu5Ac(a2-6)Gal(b1-4)GlcNAc(b1-2)Man(a1-6)]Man(b1-4)GlcNAc(b1-4)GlcNAc
# In short: as §1
# [15] = biological target: Neu5Ac(a2-3)Gal(b1-4)GlcNAc(b1-2)[Neu5Ac(a2-3)Gal(b1-4)GlcNAc(b1-4)]Man(a1-3)[GlcNAc(b1-4)][Neu5Ac(a2-3)Gal(b1-4)GlcNAc(b1-2)[Neu5Ac(a2-3)Gal(b1-4)GlcNAc(b1-6)]Man(a1-6)]Man(b1-4)GlcNAc(b1-4)GlcNAc
# In short: as §1
# [16] = biological target: Neu5Ac(a2-3)Gal(b1-4)GlcNAc(b1-2)[Neu5Ac(a2-3)Gal(b1-4)GlcNAc(b1-4)]Man(a1-3)[GlcNAc(b1-4)][Neu5Ac(a2-3)Gal(b1-4)GlcNAc(b1-4)Man(a1-6)]Man(b1-4)GlcNAc(b1-4)GlcNAc
# In short: as §1
# [17] = biological target: Neu5Ac(a2-3)Gal(b1-4)GlcNAc(b1-2)[Neu5Ac(a2-3)Gal(b1-4)GlcNAc(b1-6)]Man(a1-6)[Neu5Ac(a2-3)Gal(b1-4)GlcNAc(b1-2)Man(a1-3)]Man(b1-4)GlcNAc(b1-4)GlcNAc
# In short: as §1
# [18] = biological target: Neu5Ac(a2-3)Gal(b1-4)GlcNAc(b1-2)[Neu5Ac(a2-3)Gal(b1-4)GlcNAc(b1-6)]Man(a1-6)[Neu5Ac(a2-3)Gal(b1-4)GlcNAc(b1-2)Man(a1-3)][GlcNAc(b1-4)]Man(b1-4)GlcNAc(b1-4)GlcNAc
# In short: as §1
# [19] = biological target: Neu5Ac(a2-3)Gal(b1-4)GlcNAc(b1-3)Gal
# In short: as §1
# [20] = biological target: Neu5Ac(a2-3)Gal(b1-4)GlcNAc(b1-3)Gal(b1-3)GlcNAc
# In short: as §1
# [21] = biological target: Neu5Ac(a2-3)Gal(b1-4)GlcNAc(b1-3)Gal(b1-4)GlcNAc
# In short: as §1
# [22] = biological target: Neu5Ac(a2-3)Gal(b1-4)GlcNAc(b1-3)Gal(b1-4)GlcNAc(b1-2)Man(a1-3)[Neu5Ac(a2-3)Gal(b1-4)GlcNAc(b1-3)Gal(b1-4)GlcNAc(b1-2)Man(a1-6)]Man(b1-4)GlcNAc(b1-4)GlcNAc
# In short: as §1
# [23] = biological target: Neu5Ac(a2-3)Gal(b1-4)GlcNAc(b1-3)Gal(b1-4)GlcNAc(b1-3)Gal(b1-4)GlcNAc
# In short: as §1
# [24] = biological target: Neu5Ac(a2-3)Gal(b1-4)GlcNAc(b1-3)Gal(b1-4)GlcNAc(b1-3)Gal(b1-4)GlcNAc(b1-2)Man(a1-3)[Neu5Ac(a2-3)Gal(b1-4)GlcNAc(b1-3)Gal(b1-4)GlcNAc(b1-3)Gal(b1-4)GlcNAc(b1-2)Man(a1-6)]GalNAc
# In short: as §1
# [25] = biological target: Neu5Ac(a2-3)Gal(b1-4)GlcNAc(b1-3)Gal(b1-4)GlcNAc(b1-3)GalNAc
# In short: as §1
# [26] = biological target: Neu5Ac(a2-3)Gal(b1-4)GlcNAc(b1-3)Gal(b1-4)GlcNAc(b1-3)[Neu5Ac(a2-3)Gal(b1-4)GlcNAc(b1-3)Gal(b1-4)GlcNAc(b1-6)]GalNAc
# In short: as §1
# [27] = biological target: Neu5Ac(a2-3)Gal(b1-4)GlcNAc(b1-3)Gal(b1-4)GlcNAc(b1-6)[Gal(b1-3)]GalNAc
# In short: as §1
# [28] = biological target: Neu5Ac(a2-3)Gal(b1-4)GlcNAc(b1-3)Gal(b1-4)[Fuc(a1-3)]GlcNAc
# In short: as §1
# [29] = biological target: Neu5Ac(a2-3)Gal(b1-4)GlcNAc(b1-3)GalNAc
# In short: as §1
# [30] = biological target: Neu5Ac(a2-3)Gal(b1-4)GlcNAc(b1-3)[Neu5Ac(a2-3)Gal(b1-4)GlcNAc(b1-6)]GalNAc
# In short: as §1
# [31] = biological target: Neu5Ac(a2-3)Gal(b1-4)GlcNAc(b1-6)GalNAc
# In short: as §1
# [32] = biological target: Neu5Ac(a2-3)Gal(b1-4)GlcNAc(b1-6)[Gal(b1-3)]GalNAc
# In short: as §1
# [33] = biological target: Neu5Ac(a2-3)Gal(b1-4)GlcNAc(b1-6)[Neu5Ac(a2-3)Gal(b1-3)]GalNAc
# In short: as §1
# [34] = biological target: Neu5Ac(a2-3)Gal(b1-4)GlcNAc6S
# In short: as §1
# [35] = biological target: Neu5Ac(a2-3)Gal(b1-4)[Fuc(a1-3)]GlcNAc
# In short: as §1
# [36] = biological target: Neu5Ac(a2-3)Gal(b1-4)[Fuc(a1-3)]GlcNAc(b1-2)Man
# In short: as §1
# [37] = biological target: Neu5Ac(a2-3)Gal(b1-4)[Fuc(a1-3)]GlcNAc(b1-3)Gal
# In short: as §1
# [38] = biological target: Neu5Ac(a2-3)Gal(b1-4)[Fuc(a1-3)]GlcNAc(b1-3)Gal(b1-4)GlcNAc
# In short: as §1
# [39] = biological target: Neu5Ac(a2-3)Gal(b1-4)[Fuc(a1-3)]GlcNAc(b1-3)Gal(b1-4)[Fuc(a1-3)]GlcNAc(b1-3)Gal(b1-4)[Fuc(a1-3)]GlcNAc
# In short: as §1
# [40] = biological target: Neu5Ac(a2-3)Gal(b1-4)[Fuc(a1-3)]GlcNAc(b1-3)GalNAc
# In short: as §1
# [41] = biological target: Neu5Ac(a2-3)Gal(b1-4)[Fuc(a1-3)]GlcNAc(b1-6)[Gal(b1-3)]GalNAc
# In short: as §1
# [42] = biological target: Neu5Ac(a2-3)Gal(b1-4)[Fuc(a1-3)]GlcNAc(b1-6)[Neu5Ac(a2-3)Gal(b1-3)]GalNAc
# In short: as §1
# [43] = biological target: Neu5Ac(a2-3)Gal(b1-4)[Fuc(a1-3)]GlcNAc6S
# In short: as §1
# [44] = biological target: Neu5Ac(a2-3)Gal6S(b1-4)GlcNAc
# In short: as §1
# [45] = biological target: Neu5Ac(a2-3)Gal6S(b1-4)[Fuc(a1-3)]GlcNAc
# In short: as §1
binder,measurement,setting,value
SBD-G4S3-SBD (protein) MASIPSSASVQLDSYNYDGSTFSGKIYVKNIAYSKKVTVVYADGSDNWNNNGNIIAASFSGPISGSNYEYWTFSASVKGIKEFYIKYEVSGKTYYDNNNSANYQVSTGGGGSGGGGSGGGGSEFASIPSSASVQLDSYNYDGSTFSGKIYVKNIAYSKKVTVVYADGSDNWNNNGNIIAASFSGPISGSNYEYWTFSASVKGIKEFYIKYEVSGKTYYDNNNSANYQVST,glycan array binding signal (z-score),[1],-0.409
same,glycan array binding signal (z-score),[2],-0.35
same,glycan array binding signal (z-score),[3],-0.326
same,glycan array binding signal (z-score),[4],-0.44
same,glycan array binding signal (z-score),[5],-0.217
same,glycan array binding signal (z-score),[6],-0.447
same,glycan array binding signal (z-score),[7],-0.286
same,glycan array binding signal (z-score),[8],-0.399
same,glycan array binding signal (z-score),[9],-0.409
same,glycan array binding signal (z-score),[10],-0.012
same,glycan array binding signal (z-score),[11],-0.377
same,glycan array binding signal (z-score),[12],-0.384
same,glycan array binding signal (z-score),[13],-0.421
same,glycan array binding signal (z-score),[14],-0.33
same,glycan array binding signal (z-score),[15],-0.416
same,glycan array binding signal (z-score),[16],-0.415
same,glycan array binding signal (z-score),[17],-0.33
same,glycan array binding signal (z-score),[18],-0.421
same,glycan array binding signal (z-score),[19],-0.415
same,glycan array binding signal (z-score),[20],-0.374
same,glycan array binding signal (z-score),[21],-0.425
same,glycan array binding signal (z-score),[22],-0.353
same,glycan array binding signal (z-score),[23],-0.378
same,glycan array binding signal (z-score),[24],-0.19
same,glycan array binding signal (z-score),[25],-0.285
same,glycan array binding signal (z-score),[26],-0.299
same,glycan array binding signal (z-score),[27],-0.378
same,glycan array binding signal (z-score),[28],-0.429
same,glycan array binding signal (z-score),[29],-0.327
same,glycan array binding signal (z-score),[30],-0.377
same,glycan array binding signal (z-score),[31],-0.299
same,glycan array binding signal (z-score),[32],-0.386
same,glycan array binding signal (z-score),[33],-0.378
same,glycan array binding signal (z-score),[34],-0.398
same,glycan array binding signal (z-score),[35],-0.397
same,glycan array binding signal (z-score),[36],-0.32
same,glycan array binding signal (z-score),[37],-0.399
same,glycan array binding signal (z-score),[38],-0.264
same,glycan array binding signal (z-score),[39],-0.374
same,glycan array binding signal (z-score),[40],-0.028
same,glycan array binding signal (z-score),[41],4.53
same,glycan array binding signal (z-score),[42],1.28
same,glycan array binding signal (z-score),[43],-0.369
same,glycan array binding signal (z-score),[44],-0.391
same,glycan array binding signal (z-score),[45],-0.415

# From the supplement of paper PMC8728848
